# The campaign covered roughly 310,000 compounds. About 14,000 (4.5%) showed an effect of 50% or more. The effect is printed as a negative number. The list shows a part of the results.
# Biological target: human ether-à-go-go-related gene (hERG) potassium channel (human, UniProt Q12809)
# Assay: primary screen, population patch clamp on CHO cells stably expressing hERG
# 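Note: peak tail current of the secondary pulse compared with the same well before compound.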
# Chain of human ether-à-go-go-related gene (hERG) potassium channel (Q12809 whole entry, looked up): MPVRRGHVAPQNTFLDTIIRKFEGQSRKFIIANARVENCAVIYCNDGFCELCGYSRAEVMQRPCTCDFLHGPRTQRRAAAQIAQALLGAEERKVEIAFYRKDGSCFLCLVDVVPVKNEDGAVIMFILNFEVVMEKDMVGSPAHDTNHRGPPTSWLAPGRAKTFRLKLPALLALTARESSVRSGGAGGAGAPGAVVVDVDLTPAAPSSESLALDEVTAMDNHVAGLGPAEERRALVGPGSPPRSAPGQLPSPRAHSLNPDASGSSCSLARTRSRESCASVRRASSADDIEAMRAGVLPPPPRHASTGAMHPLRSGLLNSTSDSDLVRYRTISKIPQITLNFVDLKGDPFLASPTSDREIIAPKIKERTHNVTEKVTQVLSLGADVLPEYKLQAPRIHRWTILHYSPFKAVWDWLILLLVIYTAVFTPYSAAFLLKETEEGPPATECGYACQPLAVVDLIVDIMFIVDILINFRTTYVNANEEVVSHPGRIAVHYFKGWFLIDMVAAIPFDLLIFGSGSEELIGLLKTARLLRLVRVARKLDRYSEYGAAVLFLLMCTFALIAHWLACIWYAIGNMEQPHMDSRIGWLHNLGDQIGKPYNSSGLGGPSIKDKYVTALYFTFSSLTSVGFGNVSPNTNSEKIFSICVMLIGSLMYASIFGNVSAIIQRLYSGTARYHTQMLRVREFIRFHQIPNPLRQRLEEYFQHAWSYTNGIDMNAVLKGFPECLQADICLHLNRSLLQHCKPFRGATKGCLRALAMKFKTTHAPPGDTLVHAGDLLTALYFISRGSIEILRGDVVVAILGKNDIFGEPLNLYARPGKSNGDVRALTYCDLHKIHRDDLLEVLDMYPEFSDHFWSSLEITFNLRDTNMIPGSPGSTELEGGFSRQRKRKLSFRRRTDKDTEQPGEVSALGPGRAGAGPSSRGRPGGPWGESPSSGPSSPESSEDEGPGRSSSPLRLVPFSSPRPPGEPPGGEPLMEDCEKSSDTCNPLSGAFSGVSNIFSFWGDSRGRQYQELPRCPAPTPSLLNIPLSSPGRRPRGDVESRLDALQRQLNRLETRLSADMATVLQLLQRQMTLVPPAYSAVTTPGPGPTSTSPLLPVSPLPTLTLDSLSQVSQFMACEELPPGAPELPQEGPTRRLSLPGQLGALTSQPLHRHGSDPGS
row,Structure (SMILES),"hERG current change (%, negative = inhibition) at 10uM [%]"
1,O=C(COCC(=O)N1CCOCC1)N1CCOCC1,14.2
2,COCCNc1ncnc2c1[nH]c1ccccc12,8.68
3,S=C(Nc1ccccc1Cl)NC1CCN(Cc2ccccc2)CC1,-17.9
4,CCOc1ccc(OCC)c(NC(=O)C2CCCN(C(=O)c3ccc(Cl)cc3)C2)c1 (centres unmarked),-34
5,CCn1cc(C(=O)N(C)c2ccc(OC)cc2OC)c2cc(OC)c(OC)cc2c1=O,12.4
6,CC(=O)Nc1ccc(S(=O)(=O)NCCc2csc(-c3cccnc3)n2)cc1,13.9
7,CCOC(=O)CNC(=S)N1CC2C[C@@H](C1)Cn1c2cccc1=O,18.2
8,CC12CCC(=O)N1C(C(=O)NNC(=O)COc1ccc(Br)cc1)CS2 (centres unmarked),-2.04
9,CCOC(=O)[C@@H]1[C@H]2COc3ccccc3[C@@H]2N2C(=O)N(c3ccc(OC)cc3)C(=O)[C@@]12C,-0.644
10,CCc1ccc2c(CN3CC=C(c4ccccc4)CC3)cc(=O)oc2c1,-26.3
11,O=C(c1ccc2c(=O)n(Cc3ccc(Cl)cc3)c(=S)[nH]c2c1)N1CCOCC1,15.6
12,Cc1cc(C(=O)NCC(=O)OCC(=O)NCCc2ccccc2)ccc1[N+](=O)[O-],-16.9
13,CCCOC(=O)c1ccc(NC(=O)Cc2cccs2)cc1,-2.06
14,O=C(NCc1cccnc1)c1cn(-c2ccccc2)nc1-c1ccccc1,-24.3
15,C=CCOc1c2ccc(C(=O)NCc3ccc(OC)cc3)cc2nn1C,22.5
16,CC(C)CN(C(=O)COC(=O)c1ccc([N+](=O)[O-])s1)c1c(N)n(Cc2ccccc2)c(=O)[nH]c1=O,2.48
17,CN(C)c1cccc(C(=O)OCC(=O)Nc2ccccc2Sc2ccccc2)c1,23.9
18,Cc1ccc(S(=O)(=O)NCCN2CCOCC2)c(C)c1C,13.3
19,CC12CC[C@H]3[C@@H](CCC4(O)C[C@H](O)CCC34/C=N/NC(=O)c3ccccc3F)C1(O)CCC2C1=CC(=O)OC1 (some centres unmarked),16.5
20,CCC(C)C(=O)Nc1cc([N+](=O)[O-])ccc1Cl (centres unmarked),8.52
21,Cc1c(NC(=S)NC(=O)C(C)(C)C)c(=O)n(-c2ccccc2)n1C,-6.81
22,Cc1ccc(C(=O)OCC(=O)NCc2ccco2)s1,10.9

row,Structure (SMILES),"hERG current change (%, negative = inhibition) at 10uM [%]"
1,Cc1ccc(N(C(=O)c2csnn2)C(C(=O)NC2CCCCC2)c2cccnc2)cc1C (centres unmarked),-7.34
2,Cc1ccc(/C=C/C(=O)Nc2cc(S(N)(=O)=O)ccc2O)cc1,-48.4
3,COc1ccc(CC(C#N)(CO)c2nc3ccccc3[nH]2)cc1 (centres unmarked),-7.12
4,COc1ccc(Cn2c(C)nc3c(c(=O)c4ccccc4n3C)c2=O)cc1,-44.5
5,c1ccc2c(c1)CCNC2c1ccncc1 (centres unmarked),16
6,O=C(COC(=O)Cc1n[nH]c(=O)c2ccccc12)Nc1ccc(Cl)cn1,-29.3
7,N#C/C(=C\c1cn(Cc2ccccc2F)c2ccccc12)C(=O)NCc1ccco1,14.3
8,Cc1cc(/C=C2\C(=O)NC(=O)N(c3ccc(Cl)cc3)C2=O)c(C)n1-c1cccc(C(=O)O)c1,13.6
9,CSc1ncccc1C(=O)OCC(=O)N(CC(C)C)c1c(N)n(Cc2ccccc2)c(=O)[nH]c1=O,6.44
10,CSc1ccc(/C=C(\C#N)C(=O)Nc2cccc(C)c2)cc1,4.76
11,COc1ccc(Cn2c(O)c(C=Nc3c(C)n(C)n(-c4ccccc4)c3=O)c(=O)[nH]c2=O)cc1,6.86
12,CCCN(CC(=O)Nc1ccc(Cl)cc1Cl)C(=O)/C=C/c1cc(OC)ccc1OC,16.8
13,COc1ccc(C(=O)NCc2ccc(C(=O)O)o2)cc1,4.01
14,COCc1ccc(CN2CCC(CO)(CC3CCCCO3)CC2)o1 (centres unmarked),16.3
15,CC(C)(C)c1nc2cc(Cl)c([N+](=O)[O-])cc2o1,-19.4
16,Cc1cc([N+](=O)[O-])nn1CC(=O)Nc1ccccn1,5.51
17,COc1ccc(N(C)S(=O)(=O)c2c(C)[nH]c(=O)[nH]c2=O)c(OC)c1,-4.59
18,COc1ccc(N2CCN(C(=O)COC(=O)c3cnccn3)CC2)cc1,9.71
19,CCS(=O)(=O)Nc1ccc(-c2nnc(SCC(=O)c3ccc(NC(C)=O)c(OC)c3)o2)cc1,-23.8
20,COc1cccc(NC(=O)c2nn(C)c3c2CS(=O)(=O)c2ccccc2-3)c1,8.68
21,O=C1CCCc2oc3c(cc(NS(=O)(=O)c4ccc5c6c(cccc46)C(=O)N5)c4ccccc43)c21,-10
22,O=C(c1cccc(F)c1)N1CCc2ccccc21,-12.5

row,Structure (SMILES),"hERG current change (%, negative = inhibition) at 10uM [%]"
1,C=CCC(NCc1ccccc1)c1ccc(Cl)cc1 (centres unmarked),0.909
2,O=C(CNC(=O)c1ccc(F)cc1)c1ccc(Cl)cc1,17
3,CCCCN(C(=O)c1c(CC)noc1C)c1c(N)n(CC(C)C)c(=O)[nH]c1=O,0.124
4,O=C(CSC1CC(=O)N(CCc2ccccc2)C1=O)Nc1ccc(Br)cc1 (centres unmarked),-12.9
5,Cc1cccc(CS(=O)(=O)c2ncc(Cl)c(C(=O)NCc3ccccc3)n2)c1,5.6
6,CC(=O)c1ccc(NC(=S)N2CCN(c3ccccn3)CC2)cc1,9.47
7,COc1ccc(Cl)cc1N1C(=O)CC(Sc2ccccc2N)C1=O (centres unmarked),0.15
8,CC(C)(C)C(=O)Nc1ccccc1C(=O)N1CCCC1,18.7
9,Cc1ccc(CNC(=O)c2cc(-c3ccccc3C)n(CC3CC(c4cccc([N+](=O)[O-])c4)=NO3)n2)cc1 (centres unmarked),13.6
10,COc1cc(OC)cc(OC(=O)C2CCN(S(=O)(=O)c3ccc(OC)c(OC)c3)CC2)c1,3.39
11,Cc1ccccc1NC(=O)c1ccc(F)c(S(=O)(=O)N2CCCCC2)c1,20.4
12,C=CCn1c(SCC(=O)Nc2ccc(F)cc2F)nnc1-c1cnccn1,-58.8
13,CSc1ccc(/C=C(\C#N)C(=O)NC2CCCCC2C)cc1 (centres unmarked),-21.7
14,CCOC(=O)Cc1csc(NC(=O)CC(C)(C)C)n1,9.76
15,COc1cc(Cl)c(NS(=O)(=O)c2cc3[nH]c(=O)c(=O)[nH]c3cc2C)c(OC)c1,12.4
16,CCOC(=O)C1CCCN(c2nc3ccccc3nc2C(C#N)C(=O)OC(C)COC)C1 (centres unmarked),-55.2
17,CCO[C@H]1OC(C(=O)N2CCOCC2)=C[C@@H](C)[C@@H]1CCCO,12.5
18,COc1ccc(-n2cc(CNC(C)c3ccncn3)c(-c3cccc(F)c3)n2)cc1 (centres unmarked),-59.4
19,CC1CCCC(NC(=O)COC(=O)Cc2ccc(Br)cc2)C1C (centres unmarked),17.9
20,Cc1c(C(=O)N2CCC(C)CC2)cccc1[N+](=O)[O-],26.1
21,Cc1ccc(C2(C)NC(=O)N(CC(=O)NNC(=O)c3ccccc3F)C2=O)cc1 (centres unmarked),-5.29
22,CCOC(=O)C1=C(C)NC(=O)CC1c1ccccc1OC (centres unmarked),7.62

row,Structure (SMILES),"hERG current change (%, negative = inhibition) at 10uM [%]"
1,CN(C)c1ccc(C(=O)OCc2ccccc2)cc1,17.3
2,COc1ccccc1NC(=O)Cn1c(=O)oc2cc(S(=O)(=O)N3CCCC3)ccc21,16.6
3,N#Cc1c(Cl)cccc1-n1ccnc1,3.7
4,COc1cccc2[nH]c(=O)c(-c3ccccc3)cc12,6.1
5,CC(C)c1ccccc1NC(=O)CC1(CC(=O)O)CCCC1,-2.8
6,CCc1cc(C)cc(OCCOc2ccccc2/C=N/NC(C)=O)c1,11.6
7,COc1cccc(OCC(=O)O/N=C(\N)c2ccc(OC)c(OC)c2)c1,-3.46
8,CC(=O)C1=C(O)C(=O)N(CCN2CCOCC2)C1c1ccc(N(C)C)cc1.Cl (centres unmarked),3.73
9,CCOCCCn1c(SCC(=O)Nc2cc(C(C)(C)C)nn2-c2ccccc2)nc2ccccc2c1=O,-43.3
10,O=C1Nc2ccc(S(=O)(=O)NCc3ccco3)c3cccc1c23,-16.2
11,CC1=CC2=NC(=O)/C(=C\c3cc(C)n(-c4ccccc4F)c3C)C(=N)N2O1,-4.59
12,CN(C)CC(NC(=O)c1cccc(S(=O)(=O)Nc2ccc3c(c2)OCO3)c1)c1ccccc1 (centres unmarked),-14.8
13,COc1ccccc1Nc1nc(C)cc(C)c1C(N)=O,1.92
14,CCN(CC)c1ccc2cc(C(=O)Nc3ccccn3)c(=O)oc2c1,12.1
15,COc1ccc(-c2cc(C(=O)NCc3cccnc3)no2)cc1,-13.5
16,Cc1cc(C(=O)COC(=O)c2ccc[nH]c2=O)c(C)n1-c1ccc(Br)cc1,1.63
17,CC1(C)CC(NC(=O)CCc2ccccc2)CC(C)(C)N1.Cl,2.05
18,Cc1ccccc1N(C(=O)Cn1nnc2ccccc21)C(C(=O)NCc1ccco1)c1ccncc1 (centres unmarked),-4.4
19,CC(Sc1nnc(C2CC2)n1C1CC1)C(=O)Nc1cccc(S(=O)(=O)N(C)C)c1 (centres unmarked),-19.5
20,COc1ccc(CNC(=O)COC(=O)CCc2c[nH]c3ccccc23)cc1,35.6

# From paper PMC4336329 (PLoS ONE, 2015)
